Results published in PubChem BioAssay AID720536 (National Center for Advancing Translational Sciences (NCATS), 2013).
The campaign covered roughly 1,600 compounds. About 650 (41%) were called active. So high a share suggests a set chosen from earlier hits. Inconclusive means that the source gave no clear call. Such entries were picked first, then a sample of the others. Calls follow the shape of the dose curve; as a rule, active = well fitted inhibition curve with a large enough effect; inconclusive = small, poorly fitted or top-dose-only effect; inactive = no such curve, though single readings can be large or run the other way. Potencies of inconclusive entries are left out as doubtful fits.

Assay: qHTS for Inhibitors of TGF-b: CCL64 Cells Orthogonal Assay for Cherry Picks; also: nearly all actives have a fitted effect of over 65% in size;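 as to activity, negative = inhibition: 0% = stimulated DMSO wells and full inhibition = unstimulated wells without TGF-beta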
Details: CCL64 CAGA-GFP reporter, TGF-b stimulated, GFP fluorescence, 18 h; activity, negative = inhibition: at 46.1 µM (top of the series)
Summary of the method: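 Readout was total-well GFP fluorescence from summed single-cell values after 18 h TGF-beta stimulation (500 pg/mL) of CCL64 CAGA-GFP cells in 1% FBS, compounds added 2 h after plating. Normalized to unstimulated and stimulated-DMSO wells; curves classified by fit quality and efficacy.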
Potency is read from the fitted curve at half-maximal effect; tags tell the direction and shape of the fitted curve.

Compound | Potency | activity, negative = inhibition
CC(=Nc1ccccc1)C1=C(O)C(Cc2ccccc2)NC1=O (configuration not stated) | active: 3.26 µM | –
O=C(NC1CCCC(C(F)(F)F)C1)c1ccc([N+](=O)[O-])o1 (configuration not stated) | inconclusive [inhibitor, single point] | –
Cc1cc(C)c(OCC(=O)Nc2nc(-c3ccccn3)cs2)c(C)c1 | inconclusive [inhibitor, single point] | –
CC(C)[C@H]1COCCS(=O)(=O)N1Cc1ccccc1-c1cccc2c1oc1ccccc12 | – | inactive: -28.3%
CC(C)C[C@H](NC(=O)c1nc[nH]c1C(=O)N1CCN(c2ccccc2)CC1)C(=O)OC(C)(C)C | – | inactive: -24%
CC(=O)Nc1ccc2nc(NC(=O)c3ccc([N+](=O)[O-])o3)sc2c1 | inconclusive [inhibitor, partial curve, poor fit] | –
CC(=O)c1cccc(N=c2scc(-c3ccc(S(=O)(=O)N4CCOCC4)cc3)n2CCO)c1 | inconclusive [inhibitor, single point] | –
O=C(NCCCCCCNC(=O)c1ccccc1O)c1ccccc1O | inconclusive [inhibitor, single point] | –
COc1ccc(C(=O)Oc2cccc3cccnc23)cc1[N+](=O)[O-] | – | inactive: 16%
O=C(Cn1ncc(Cl)c(Cl)c1=O)N1CCN(S(=O)(=O)c2ccc3ccccc3c2)CC1 | active: 5.17 µM | –
CCOc1ccc(S(=O)(=O)N2CCN(CC(O)COc3cccc([N+](=O)[O-])c3)CC2)cc1 (configuration not stated) | inconclusive [inhibitor, single point] | –
O=C1NC(Cc2ccc(O)cc2)c2nc3cc(F)c(F)cc3c(=O)n2-c2cc3ccccc3cc21 (configuration not stated) | inconclusive [inhibitor, partial curve, poor fit] | –
Cc1ccc(C)c(N2N=C(C(=O)Nc3ccccc3N3CCCC3)CCC2=O)c1 | inconclusive [inhibitor, single point] | –
O=C(c1ccc2c(c1)OCO2)C1CCCN(Cc2ccc(OC(F)F)cc2)C1 (configuration not stated) | inconclusive [inhibitor, single point] | –
CN(CCc1ccccc1)C(=O)c1cccc(NC(=O)Cc2cccc([N+](=O)[O-])c2)c1 | – | inactive: -2.38%
CC(=O)c1ccc(-c2cnc3c(NC=O)cc(-c4ccc(C(=O)N5CCOCC5)cc4)cn23)cc1 | inconclusive [inhibitor, partial curve] | –
CCN1CCN(c2ccc(S(=O)(=O)N3CCCCC3)cc2NC(=O)c2ccc([N+](=O)[O-])o2)CC1 | active: 16.4 µM | –
O=C1Cc2c([nH]c3ccc([N+](=O)[O-])cc23)-c2ccccc2N1 | active: 1.3 µM | –
CC(=O)c1ccc(Nc2nc(-c3ccccc3)nc3ccccc23)cc1 | – | inactive: -5.97%
NC(c1csc(NC(=O)Nc2cccc(C(F)(F)F)c2)n1)C1CCCCC1 (configuration not stated) | inconclusive [inhibitor, single point] | –
OCC1OC(n2ccc3c(NO)ncnc32)C(O)C1O (configuration not stated) | active: 1.3 µM | –

Compound | Potency | activity, negative = inhibition
O=CNc1cc(-c2ccoc2)cn2c(-c3ccc(F)cc3)cnc12 | inconclusive [inhibitor, single point] | –
Cc1cccc(NCc2ccc(O)c3ncccc23)c1C | inconclusive [inhibitor, full curve, poor fit] | –
COc1ccc(-c2cc(N)n(S(=O)(=O)c3c(F)c(F)c(F)c(F)c3F)n2)cc1OC | active: 2.91 µM | –
CC(C)=CCNc1ncnc2c1c(C#N)cn2C1OC(CO)C(O)C1O (configuration not stated) | – | inactive: 13%
CC(C)(C)OC(=O)N1CCC(NC(=O)c2[nH]cnc2C(=O)Nc2ccccc2)CC1 | inconclusive [inhibitor, single point] | –
COc1ccc(/C=C/C(=O)c2cc(F)ccc2OC(=O)c2ccccc2)cc1OC | inconclusive [inhibitor, full curve, poor fit] | –
CC(C)(C)OC(=O)[C@H](Cc1ccccc1)NC(=O)c1nc[nH]c1C(=O)N[C@@H](Cc1ccccc1)C(=O)OC(C)(C)C | inconclusive [inhibitor, partial curve, poor fit] | –
Nc1ncnc2c1ncn2C1C=C(CO)C(O)C1O (configuration not stated) | inconclusive [inhibitor, single point] | –
CN1CCC[C@H]1CCNc1ccc2c(=O)c3ccccc3n(C)c2c1 | active: 20.6 µM | –
Cc1ccc(Cl)cc1N1CCN(C(=S)NCc2ccco2)CC1 | inconclusive [inhibitor, single point] | –
CCN(CC)C(=O)[C@H]1C[C@H](CC(=O)NC/C=C(\C)CCC=C(C)C)C(=O)N2CCc3c([nH]c4cc(CCC(=O)N(C)C)ccc34)[C@]12C | inconclusive [inhibitor, partial curve, poor fit] | –
CC=Cc1cc2c(c(=O)o1)C(=O)C(O)C(C)O2 (configuration not stated) | inconclusive [inhibitor, single point] | –
Cc1noc2ncnc(Oc3cc(Cl)ccc3Cl)c12 | inconclusive [inhibitor, single point] | –
C/C(=N\NC(=O)c1ccccc1OCCOc1ccccc1)c1ccccc1F | inconclusive [inhibitor, partial curve, poor fit] | –
O=C(Oc1ccc(Cl)c2cccnc12)c1ccco1 | – | inactive: 22.1%
COc1ccc([C@H]2CC(=O)C=C(/C=C/c3ccccc3)C2)cc1OC | inconclusive [inhibitor, single point] | –
Cc1cccc(CN2CCCC(C(=O)c3ccc4c5c(cccc35)CC4)C2)n1 (configuration not stated) | inconclusive [inhibitor, single point] | –
CS(=O)(=O)c1ccc2nc(NC(=O)Nc3cccc(Cl)c3)sc2c1 | inconclusive [inhibitor, partial curve] | –
Cc1cc(C)c2c(c1)cc(C)c1nnc(SCC(=O)Nc3ccc(S(=O)(=O)N4CCCCC4)cc3)n12 | – | inactive: -21.5%
O=C(NCc1ccccc1)C1=C[C@H](c2ccc(C(F)(F)F)cc2)C[C@H](OCc2ccc(CO)cc2)O1 | inconclusive [inhibitor, single point] | –
Cc1nc(-c2ccc(S(=O)(=O)N3CCCN(CCc4ccccc4)CC3)s2)cs1 | inconclusive [inhibitor, single point] | –

Compound | Potency | activity, negative = inhibition
Cc1cc(NC(=S)NC(=O)C2CC2)ccc1Br | inconclusive [inhibitor, single point] | –
Clc1ccc(Nc2nc(-c3cccs3)cs2)nc1 | active: 29.1 µM | –
Cc1sc2ncnc(N3CCC(C(=O)Nc4nc(-c5cccs5)cs4)CC3)c2c1C | inconclusive [inhibitor, single point] | –
CN(C)c1ccc(C2CNC(c3ccc(Cl)c([N+](=O)[O-])c3)c3[nH]c4ccccc4c32)cc1 (configuration not stated) | active: 20.6 µM | –
COc1ccc2cc([C@H](C)C(=O)N(C)Cc3ccccc3N3CCCC3)ccc2c1 | inconclusive [inhibitor, single point] | –
CC[C@]12c3[nH]c4cc(-c5ccco5)ccc4c3CCN1C(=O)[C@@H](CC(=O)NCc1cccc(C(F)(F)F)c1)C[C@@H]2C(=O)N1CCN(C(=O)C2CC2)CC1 | inconclusive [inhibitor, single point] | –
CCc1nc(Nc2ccncc2)c2oc3ccccc3c2n1 | inconclusive [inhibitor, single point] | –
Cc1ccc2nc3c(c(Nc4ccc5c(c4)OCCO5)c2c1)CCC3 | inconclusive [inhibitor, single point] | –
O=C(c1ccc(Cl)c([N+](=O)[O-])c1)N1CCN(S(=O)(=O)c2ccc(Cl)cc2)CC1 | inconclusive [inhibitor, partial curve, poor fit] | –
Oc1ccccc1-c1n[nH]c(-c2ccccc2O)n1 | inconclusive [inhibitor, full curve, poor fit] | –
CC[C@]12c3[nH]c4ccc(Cl)cc4c3CCN1C(=O)[C@@H](CC(=O)NCc1cccc(C(F)(F)F)c1)C[C@@H]2C(=O)N1CCN(C(=O)c2ccco2)CC1 | active: 10.3 µM | –
COc1ccc(C(=O)NCCN(C)C)c2nc3ccccc3cc12 | inconclusive [inhibitor, single point] | –
CC(C)C[C@@H](CN1CCCC1CN1C(=S)NC[C@@H]1Cc1ccc(O)cc1)N1C[C@H](Cc2ccc(O)cc2)N(CCc2ccccc2)C1=S (some centres not stated) | active: 8.2 µM | –
Clc1nc(Cl)nc(N(c2ccccc2)c2ccccc2)n1 | inconclusive [inhibitor, single point] | –
CC(=O)Nc1ccc(S(=O)(=O)c2ccnc3cc(Cl)ccc23)cc1 | active: 20.6 µM | –
O=C(Nc1ccc(N2CCN(C(=O)c3ccccc3)CC2)cc1)c1ccc([N+](=O)[O-])o1 | inconclusive [inhibitor, partial curve] | –
CCCc1cc(-c2[nH]ncc2-c2ccc(C(=O)OCC)o2)c(O)cc1O | inconclusive [inhibitor, single point] | –
CC(=O)c1ccc(-c2cnc3c(NC=O)cc(-c4ccccc4Oc4ccccc4)cn23)cc1 | inconclusive [inhibitor, partial curve, poor fit] | –
CC(C)(C)OC(=O)[C@H](Cc1ccccc1)NC(=O)c1[nH]cnc1C(=O)Nc1cccc(Cl)c1 | inconclusive [inhibitor, partial curve, poor fit] | –
Cc1cccc(NS(=O)(=O)c2ccc(-c3cnc(C4CC4)o3)cc2)c1 | inconclusive [inhibitor, single point] | –
